# The other results are listed elsewhere or left out. Binding of human transcription factors and regulators to the viral nucleoprotein by AlphaScreen, crude cell-free proteins, amounts not normalised, one pass. Fold of the Venus control; higher = more signal. No active / inactive call. Single-pass screen; sequences are the whole Swiss-Prot entries looked up by name.
# B1: SNAPC4, Q5SXM2 (protein)
# chain: MDVDAEREKITQEIKELERILDPGSSGSHVEISESSLESDSEADSLPSEDLDPADPPISEEERWGEASNDEDDPKDKTLPEDPETCLQLNMVYQEVIQEKLAEANLLLAQNREQQEELMRDLAGSKGTKVKDGKSLPPSTYMGHFMKPYFKDKVTGVGPPANEDTREKAAQGIKAFEELLVTKWKNWEKALLRKSVVSDRLQRLLQPKLLKLEYLHQKQSKVSSELERQALEKQGREAEKEIQDINQLPEEALLGNRLDSHDWEKISNINFEGSRSAEEIRKFWQNSEHPSINKQEWSREEEERLQAIAAAHGHLEWQKIAEELGTSRSAFQCLQKFQQHNKALKRKEWTEEEDRMLTQLVQEMRVGSHIPYRRIVYYMEGRDSMQLIYRWTKSLDPGLKKGYWAPEEDAKLLQAVAKYGEQDWFKIREEVPGRSDAQCRDRYLRRLHFSLKKGRWNLKEEEQLIELIEKYGVGHWAKIASELPHRSGSQCLSKWKIMMGKKQGLRRRRRRARHSVRWSSTSSSGSSSGSSGGSSSSSSSSSEEDEPEQAQAGEGDRALLSPQYMVPDMDLWVPARQSTSQPWRGGAGAWLGGPAASLSPPKGSSASQGGSKEASTTAAAPGEETSPVQVPARAHGPVPRSAQASHSADTRPAGAEKQALEGGRRLLTVPVETVLRVLRANTAARSCTQKEQLRQPPLPTSSPGVSSGDSVARSHVQWLRHRATQSGQRRWRHALHRRLLNRRLLLAVTPWVGDVVVPCTQASQRPAVVQTQADGLREQLQQARLASTPVFTLFTQLFHIDTAGCLEVVRERKALPPRLPQAGARDPPVHLLQASSSAQSTPGHLFPNVPAQEASKSASHKGSRRLASSRVERTLPQASLLASTGPRPKPKTVSELLQEKRLQEARAREATRGPVVLPSQLLVSSSVILQPPLPHTPHGRPAPGPTVLNVPLSGPGAPAAAKPGTSGSWQEAGTSAKDKRLSTMQALPLAPVFSEAEGTAPAASQAPALGPGQISVSCPESGLGQSQAPAASRKQGLPEAPPFLPAAPSPTPLPVQPLSLTHIGGPHVATSVPLPVTWVLTAQGLLPVPVPAVVSLPRPAGTPGPAGLLATLLPPLTETRAAQGPRAPALSSSWQPPANMNREPEPSCRTDTPAPPTHALSQSPAEADGSVAFVPGEAQVAREIPEPRTSSHADPPEAEPPWSGRLPAFGGVIPATEPRGTPGSPSGTQEPRGPLGLEKLPLRQPGPEKGALDLEKPPLPQPGPEKGALDLGLLSQEGEAATQQWLGGQRGVRVPLLGSRLPYQPPALCSLRALSGLLLHKKALEHKATSLVVGGEAERPAGALQASLGLVRGQLQDNPAYLLLRARFLAAFTLPALLATLAPQGVRTTLSVPSRVGSESEDEDLLSELELADRDGQPGCTTATCPIQGAPDSGKCSASSCLDTSNDPDDLDVLRTRHARHTRKRRRLV
# B2: NR2C1, P13056 (protein)
# chain: MATIEEIAHQIIEQQMGEIVTEQQTGQKIQIVTALDHNTQGKQFILTNHDGSTPSKVILARQDSTPGKVFLTTPDAAGVNQLFFTTPDLSAQHLQLLTDNSPDQGPNKVFDLCVVCGDKASGRHYGAVTCEGCKGFFKRSIRKNLVYSCRGSKDCIINKHHRNRCQYCRLQRCIAFGMKQDSVQCERKPIEVSREKSSNCAASTEKIYIRKDLRSPLTATPTFVTDSESTRSTGLLDSGMFMNIHPSGVKTESAVLMTSDKAESCQGDLSTLANVVTSLANLGKTKDLSQNSNEMSMIESLSNDDTSLCEFQEMQTNGDVSRAFDTLAKALNPGESTACQSSVAGMEGSVHLITGDSSINYTEKEGPLLSDSHVAFRLTMPSPMPEYLNVHYIGESASRLLFLSMHWALSIPSFQALGQENSISLVKAYWNELFTLGLAQCWQVMNVATILATFVNCLHNSLQQDKMSTERRKLLMEHIFKLQEFCNSMVKLCIDGYEYAYLKAIVLFSPDHPSLENMEQIEKFQEKAYVEFQDYITKTYPDDTYRLSRLLLRLPALRLMNATITEELFFKGLIGNIRIDSVIPHILKMEPADYNSQIIGHSI
# B3: ZRANB2, O95218 (protein)
# chain: MSTKNFRVSDGDWICPDKKCGNVNFARRTSCNRCGREKTTEAKMMKAGGTEIGKTLAEKSRGLFSANDWQCKTCSNVNWARRSECNMCNTPKYAKLEERTGYGGGFNERENVEYIEREESDGEYDEFGRKKKKYRGKAVGPASILKEVEDKESEGEEEDEDEDLSKYKLDEDEDEDDADLSKYNLDASEEEDSNKKKSNRRSRSKSRSSHSRSSSRSSSPSSSRSRSRSRSRSSSSSQSRSRSSSRERSRSRGSKSRSSSRSHRGSSSPRKRSYSSSSSSPERNRKRSRSRSSSSGDRKKRRTRSRSPERRHRSSSGSSHSGSRSSSKKK
# B4: MYNN, Q9NPC7 (protein)
# chain: MQYSHHCEHLLERLNKQREAGFLCDCTIVIGEFQFKAHRNVLASFSEYFGAIYRSTSENNVFLDQSQVKADGFQKLLEFIYTGTLNLDSWNVKEIHQAADYLKVEEVVTKCKIKMEDFAFIANPSSTEISSITGNIELNQQTCLLTLRDYNNREKSEVSTDLIQANPKQGALAKKSSQTKKKKKAFNSPKTGQNKTVQYPSDILENASVELFLDANKLPTPVVEQVAQINDNSELELTSVVENTFPAQDIVHTVTVKRKRGKSQPNCALKEHSMSNIASVKSPYEAENSGEELDQRYSKAKPMCNTCGKVFSEASSLRRHMRIHKGVKPYVCHLCGKAFTQCNQLKTHVRTHTGEKPYKCELCDKGFAQKCQLVFHSRMHHGEEKPYKCDVCNLQFATSSNLKIHARKHSGEKPYVCDRCGQRFAQASTLTYHVRRHTGEKPYVCDTCGKAFAVSSSLITHSRKHTGEKPYICGICGKSFISSGELNKHFRSHTGERPFICELCGNSYTDIKNLKKHKTKVHSGADKTLDSSAEDHTLSEQDSIQKSPLSETMDVKPSDMTLPLALPLGTEDHHMLLPVTDTQSPTSDTLLRSTVNGYSEPQLIFLQQLY
# B5: TBX18, O95935 (protein)
# chain: MAEKRRGSPCSMLSLKAHAFSVEALIGAEKQQQLQKKRRKLGAEEAAGAVDDGGCSRGGGAGEKGSSEGDEGAALPPPAGATSGPARSGADLERGAAGGCEDGFQQGASPLASPGGSPKGSPARSLARPGTPLPSPQAPRVDLQGAELWKRFHEIGTEMIITKAGRRMFPAMRVKISGLDPHQQYYIAMDIVPVDNKRYRYVYHSSKWMVAGNADSPVPPRVYIHPDSPASGETWMRQVISFDKLKLTNNELDDQGHIILHSMHKYQPRVHVIRKDCGDDLSPIKPVPSGEGVKAFSFPETVFTTVTAYQNQQITRLKIDRNPFAKGFRDSGRNRMGLEALVESYAFWRPSLRTLTFEDIPGIPKQGNASSSTLLQGTGNGVPATHPHLLSGSSCSSPAFHLGPNTSQLCSLAPADYSACARSGLTLNRYSTSLAETYNRLTNQAGETFAPPRTPSYVGVSSSTSVNMSMGGTDGDTFSCPQTSLSMQISGMSPQLQYIMPSPSSNAFATNQTHQGSYNTFRLHSPCALYGYNFSTSPKLAASPEKIVSSQGSFLGSSPSGTMTDRQMLPPVEGVHLLSSGGQQSFFDSRTLGSLTLSSSQVSAHMV
# B6: JUN, P05412 (protein)
# chain: MTAKMETTFYDDALNASFLPSESGPYGYSNPKILKQSMTLNLADPVGSLKPHLRAKNSDLLTSPDVGLLKLASPELERLIIQSSNGHITTTPTPTQFLCPKNVTDEQEGFAEGFVRALAELHSQNTLPSVTSAAQPVNGAGMVAPAVASVAGGSGSGGFSASLHSEPPVYANLSNFNPGALSSGGGAPSYGAAGLAFPAQPQQQQQPPHHLPQQMPVQHPRLQALKEEPQTVPEMPGETPPLSPIDMESQERIKAERKRMRNRIAASKCRKRKLERIARLEEKVKTLKAQNSELASTANMLREQVAQLKQKVMNHVNSGCQLMLTQQLQTF
# B7: CAPN3, P20807 (protein)
# chain: MPTVISASVAPRTAAEPRSPGPVPHPAQSKATEAGGGNPSGIYSAIISRNFPIIGVKEKTFEQLHKKCLEKKVLYVDPEFPPDETSLFYSQKFPIQFVWKRPPEICENPRFIIDGANRTDICQGELGDCWFLAAIACLTLNQHLLFRVIPHDQSFIENYAGIFHFQFWRYGEWVDVVIDDCLPTYNNQLVFTKSNHRNEFWSALLEKAYAKLHGSYEALKGGNTTEAMEDFTGGVAEFFEIRDAPSDMYKIMKKAIERGSLMGCSIDDGTNMTYGTSPSGLNMGELIARMVRNMDNSLLQDSDLDPRGSDERPTRTIIPVQYETRMACGLVRGHAYSVTGLDEVPFKGEKVKLVRLRNPWGQVEWNGSWSDRWKDWSFVDKDEKARLQHQVTEDGEFWMSYEDFIYHFTKLEICNLTADALQSDKLQTWTVSVNEGRWVRGCSAGGCRNFPDTFWTNPQYRLKLLEEDDDPDDSEVICSFLVALMQKNRRKDRKLGASLFTIGFAIYEVPKEMHGNKQHLQKDFFLYNASKARSKTYINMREVSQRFRLPPSEYVIVPSTYEPHQEGEFILRVFSEKRNLSEEVENTISVDRPVKKKKTKPIIFVSDRANSNKELGVDQESEEGKGKTSPDKQKQSPQPQPGSSDQESEEQQQFRNIFKQIAGDDMEICADELKKVLNTVVNKHKDLKTHGFTLESCRSMIALMDTDGSGKLNLQEFHHLWNKIKAWQKIFKHYDTDQSGTINSYEMRNAVNDAGFHLNNQLYDIITMRYADKHMNIDFDSFICCFVRLEGMFRAFHAFDKDGDGIIKLNVLEWLQLTMYA
# B8: PLSCR1, O15162 (protein)
# chain: MDKQNSQMNASHPETNLPVGYPPQYPPTAFQGPPGYSGYPGPQVSYPPPPAGHSGPGPAGFPVPNQPVYNQPVYNQPVGAAGVPWMPAPQPPLNCPPGLEYLSQIDQILIHQQIELLEVLTGFETNNKYEIKNSFGQRVYFAAEDTDCCTRNCCGPSRPFTLRIIDNMGQEVITLERPLRCSSCCCPCCLQEIEIQAPPGVPIGYVIQTWHPCLPKFTIQNEKREDVLKISGPCVVCSCCGDVDFEIKSLDEQCVVGKISKHWTGILREAFTDADNFGIQFPLDLDVKMKAVMIGACFLIDFMFFESTGSQEQKSGVW
# Target: nucleoprotein N of Crimean-Congo hemorrhagic fever virus
# Test: AlphaScreen luminescence signal relative to Venus negative control (fold); higher = stronger binding to CCHFV N
# Method: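 AlphaScreen binding of cell-free made, FLAG-GST-tagged human transcription factors and regulators (crude translation products) to biotinylated N protein; signal as fold of the FLAG-GST-Venus control. One pass.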
row,Binder,AlphaScreen luminescence signal
1,B1,1.67
2,B2,2.93
3,B3,1.07
4,B4,3.81
5,B5,2.33
6,B6,2.6
7,B7,1.77
8,B8,1.77

# — the supplement of paper PMC12423691
